Test results taken from PubChem BioAssay AID1865 (National Center for Advancing Translational Sciences (NCATS), 2009).
Screen size: about 280,000 compounds; about 540 (0.19%) were called active. Inconclusive means that the source gave no clear call. Such entries were picked first, then a sample of the others. Calls follow the shape of the dose curve; as a rule, active = well fitted activation curve with a large enough effect; inconclusive = small, poorly fitted or top-dose-only effect; inactive = flat fitted curve, though single readings scatter. A potency beside an inconclusive call is a rough fit, not a confirmed value. Some structures have more than one record in an assay (separate samples or runs), and their calls can disagree.

Assay: Quantitative High-Throughput Screen for Regulators of Epigenetic Control; also: nearly all actives have a fitted effect of over 60% in size
Details: murine LDR cells, GFP reporter derepression, 30 h; series mostly up to 53.9 µM
In short: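 Murine LDR cells carrying a silenced, genomically integrated CMV-driven GFP reporter were exposed to compound for 30 hours at 37 C. After PBS washes, GFP-positive cells (20–120 um objects) were counted by laser-scanning microplate cytometry.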
Potency is read from the fitted curve at half-maximal effect; tags tell the direction and shape of the fitted curve.

Row | Compound | Potency
1 | CCOc1ccc(CNC(=O)C2CCCN(c3nn4cc(-c5ccc(F)cc5)nc4s3)C2)cc1 (stereo not drawn) | inconclusive: 20 µM [activator, single point]
2 | CCc1ccc2oc(-c3ccc(NC(=O)c4cccc(Cl)c4Cl)cc3)nc2c1 | inactive
3 | O=C(Nc1nnc(-c2ccc(Cl)s2)o1)C1CC1 | inconclusive: 28.2 µM [activator, single point]
4 | COC(=O)c1ccccc1NC(=O)Cn1c(=O)n(CCCC(=O)NCc2ccccc2Cl)c(=O)c2ccccc21 | inconclusive: 14.1 µM [activator, single point]
5 | COc1cc(/C=C2\SC(=O)N(c3cccc(Cl)c3)C2=O)cc([N+](=O)[O-])c1O | inactive
6 | CN/N=C(\Cc1nc2ccccc2[nH]1)c1ccc([N+](=O)[O-])cc1 | inactive
7 | COC(=O)[C@@H]1[C@@H](C#N)C2(c3ccccc3-c3ccccc32)N(c2ccc(Cl)cc2)N1C#N | inconclusive: 31.6 µM [activator, single point]
8 | COc1cc([N+](=O)[O-])ccc1-c1ccc(/C=N/NC(N)=O)o1 | inconclusive: 35.5 µM [activator, single point]
9 | Cc1cn2c(=O)c(S(=O)(=O)NCc3ccc(F)cc3)c(C)nc2s1 | inconclusive: 22.4 µM [activator, single point]
10 | Cn1c(/C(C#N)=C/c2ccc(C(F)(F)F)cc2)nc2ccccc21 | inconclusive: 31.6 µM [activator, single point]
11 | O=C(Cn1c(=O)n(-c2ccccc2Cl)c(=O)c2sc3ccccc3c21)NC1CCCC1 | inconclusive: 35.5 µM [activator, single point]
12 | NC(=O)CC(NC(=O)Cc1cccc2ccccc12)c1ccc(NCc2ccc(F)cc2)c([N+](=O)[O-])c1 (stereo not drawn) | inconclusive: 22.4 µM [activator, single point]
13 | COCCOC(=O)C1=C(C)N=c2s/c(=C\c3cccs3)c(=O)n2C1c1cccs1 (stereo not drawn) | inconclusive: 35.5 µM [activator, single point]
14 | CC(C)C[C@H](NC(=O)c1[nH]cnc1C(=O)Nc1ccc(CNC(=O)OC(C)(C)C)cc1)C(=O)OC(C)(C)C | inconclusive: 17.8 µM [activator, single point]
15 | COc1ccc(/C=C/C(=O)c2cc3cccc(OC)c3oc2=O)cc1 | inconclusive: 35.5 µM [activator, single point]
16 | CC(C)N1C(=O)/C(=C/c2nc3ccccc3c(=O)n2-c2ccccc2)c2ccccc21 | inactive
17 | COC(=O)c1ccc(CSc2cc(C)c3cccc(C)c3n2)o1 | inconclusive: 35.5 µM [activator, single point]
18 | S=c1[nH]c(-c2ccccc2)cn1/N=C/c1cccs1 | inconclusive: 17.8 µM [activator, single point]
19 | CSc1ccc(C2C(C#N)=C(N)Oc3c2ccc(=O)c2c(C)oc(C)c32)cc1 (stereo not drawn) | inactive
20 | c1ccc2[nH]c(NN=C3CCCCCC3)nc2c1 | inconclusive: 2.82 µM [activator, single point]
21 | c1cncc(-c2nc(N3CCCCCC3)c3ccccc3n2)c1 | inactive
22 | Cc1cccc(NC(=O)N2CC=C(c3c[nH]c4ccccc34)CC2)c1C | inconclusive: 28.2 µM [activator, single point]
23 | O=C(NCC1CC1)c1ccc(Nc2nc3ccc(Br)cc3[nH]2)cc1 | inactive

Row | Compound | Potency
24 | CC1=C/C(=N\NC(=S)Nc2cccnc2)CC(C)(C)C1 | active: 6.31 µM
25 | CCCCc1nc2ccccc2n2c(-c3ccc(OC)cc3)c3c(=O)n(C)c(=O)n(C)c3c12 | inactive
26 | Cc1ccc(NC(=O)c2cn3c4c(ccc(Cl)c4c2=O)OC(C)C3)c(C)c1 (stereo not drawn) | inconclusive: 15.8 µM [activator, single point]
27 | Cc1cccc(NC(=O)c2c(C)cc(C)nc2SCC(=O)Nc2c(C)cc(C)cc2C)c1 | inconclusive: 35.5 µM [activator, single point]
28 | COC(=O)c1ccccc1NC(=O)c1nc(S(=O)(=O)Cc2cccc(C)c2)ncc1Cl | inconclusive: 5.62 µM [activator, single point]
29 | O=C(CCCn1c(=O)c2ccccc2n(Cc2ccc(F)cc2Cl)c1=O)NCCc1ccc(Cl)cc1 | inactive
30 | COc1ccc(NC(=O)CC2C(=O)N(c3ccc(C)cc3)C(=O)N2Cc2ccc3c(c2)OCO3)cc1 (stereo not drawn) | inactive
31 | CC(C)(C)NC(=S)NNC(=O)c1cccc(Br)c1 | active: 17.8 µM
32 | COc1ccc(Nc2nc3cc(Cl)c(Cl)cc3n3cnnc23)cc1Cl | inconclusive: 25.1 µM [activator, single point]
33 | O=C1c2c(O)ccc(O)c2C(=O)c2c(NCCNCCO)ccc(NCCNCCO)c21 | active: 12.6 µM
34 | Cc1ccccc1Cn1cnc2c(oc3ccccc32)c1=O | inactive
35 | S=C1SCN(CC2CC2)CN1CC1CC1 | inconclusive: 5.62 µM [activator, single point]
36 | COc1cccc(NC(=O)Cn2c(=O)n(-c3ccccc3)c(=O)c3c4c(sc32)CCCC4)c1 | inconclusive: 31.6 µM [activator, single point]
37 | CC1(C)CC(=O)C2=C(C1)c1c(ccc3ccccc13)NC2c1ccco1 (stereo not drawn) | inconclusive: 11.2 µM [activator, partial curve]
38 | COc1cccc(/C=N/NC(=O)c2ccoc2C)c1O | inconclusive: 22.4 µM [activator, single point]
39 | COc1ccc(CN(Cc2ccccn2)C(=O)CN2C(=O)C(C)Oc3ccccc32)cc1 (stereo not drawn) | inconclusive: 35.5 µM [activator, single point]
40 | COc1cc(O)cc(OC)c1OC | inconclusive: 35.5 µM [activator, single point]
41 | O=[N+]([O-])c1ccc(/C=N/Nc2ccc3ccccc3c2)o1 | inconclusive: 20 µM [activator, single point]
42 | CCOc1ccc(N2C(=O)CC(Sc3nnnn3-c3ccccc3)C2=O)cc1 (stereo not drawn) | inconclusive: 4.47 µM [activator, single point]
43 | O=C(Nc1cc(S(=O)(=O)N2CCOCC2)ccc1O)c1ccc2c(c1)S(=O)(=O)c1ccccc1C2=O | inactive
44 | C[C@@]12C=Cc3occc3C1CC[C@@]13C[C@@H](CCC12)[C@@](O)(CO)C3 (stereo partly drawn) | inconclusive: 25.1 µM [activator, single point]
45 | FC(F)(F)c1ccc(Cl)c(NC(=S)N/N=C/c2ccccc2C(F)(F)F)c1 | inactive
46 | O=C1CC(N2CCC(Cc3ccccc3)CC2)C(=O)N1CCc1ccccc1 (stereo not drawn) | inconclusive: 5.62 µM [activator, single point]

Row | Compound | Potency
47 | CCOC(=O)CN(Cc1ccccc1)C(C(=O)NC1CCCCC1)c1ccc(C)cc1 (stereo not drawn) | inactive
48 | Nc1ncn(C2OC(CO)C(O)C2O)c(=O)n1 (stereo not drawn) | inconclusive: 3.98 µM [activator, full curve]
49 | CN1CCN(C(c2ccc(Cl)cc2Cl)c2sc3nc(-c4ccco4)nn3c2O)CC1 (stereo not drawn) | inactive
50 | Cc1ccccc1NC(=O)N1CCc2cc(S(=O)(=O)N3CCC(C)CC3)ccc21 | inconclusive: 35.5 µM [activator, single point]
51 | CN(C)c1ccc(N=Nc2nc3ccccc3n2C)cc1 | inconclusive: 31.6 µM [activator, single point]
52 | CCOc1ccc(CNC(=O)Cn2nc(C)n3cccc3c2=O)cc1 | inactive
53 | CCCCNc1nc(C)nc2c1nc(-c1ccccc1)n2CCN1CCCCC1 | inactive
54 | CCc1sc(C(C2C(=O)CC(C)(C)CC2=O)C2C(=O)CC(C)(C)CC2=O)cc1[N+](=O)[O-] | inactive
55 | COc1ccc(CN2CCc3nc(Nc4ccccc4)ncc3C2)c(OC)c1OC | inconclusive: 0.316 µM [activator, partial curve]
56 | Cc1ccc(C)n1-c1nccc(-c2cccs2)n1 | inactive
57 | CCOC(=O)c1ccc(NC(=O)Cn2nnc(-c3ccc(C(F)(F)F)cc3)n2)cc1 | inconclusive: 31.6 µM [activator, single point]
58 | CC1NC(=O)NC1CCCCCC(=O)Nc1ccc(F)cc1 (stereo not drawn) | inactive
59 | N#Cc1sc2nc(-c3cccs3)cc(-c3ccc(F)cc3)c2c1N | inconclusive: 35.5 µM [activator, single point]
60 | COC(=O)c1ccc(OC)c(Cn2c(=O)n(-c3cccc(Cl)c3)c(=O)c3c2c2cc(C)ccc2n3C)c1 | inconclusive: 20 µM [activator, single point]
61 | COC(=O)c1c(NC(=O)c2ccc(S(=O)(=O)N3CCCCC3)cc2)sc2c1CCN(C)C2 | inconclusive: 35.5 µM [activator, single point]
62 | CCOC(=O)c1[nH]c(C)c(C(=O)N2CCN(c3ccc(OC)cc3)CC2)c1C | inconclusive: 1 µM [activator, full curve]
63 | CCc1ccc(NC(=O)/C(C#N)=C/c2cc3ccc(C)cc3nc2N2CCOCC2)cc1 | inconclusive: 22.4 µM [activator, single point]
64 | CCN(CC)S(=O)(=O)c1cccc(C(=O)N/N=C/c2ccc(OC)c(O)c2)c1 | inconclusive: 35.5 µM [activator, single point]
65 | CCN1/C(=C/c2cc[n+](CCCS(=O)(=O)[O-])c3ccccc23)Sc2ccccc21 | active: 12.6 µM
66 | O=[N+]([O-])C1=C(Nc2cccc3ccccc23)CS(=O)(=O)C1 | inconclusive: 31.6 µM [activator, single point]
67 | CCS(=O)(=O)N1CCC(C(=O)NCCCN2CCN(c3ccccc3F)CC2)CC1 | inactive
68 | CCN(CC)C(=O)Cn1c(SCC(=O)Nc2ccc(C)c(C)c2)nc2ccccc21 | inconclusive: 15.8 µM [activator, single point]
